# Reference: PubChem BioAssay
# This list was built around the results that the source calls inconclusive (neither active nor inactive); the mix of calls is not that of the screen. Active and inactive are the calls of the source.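 The calls were made as follows: active = thallium flux slope above the same plate's solvent-control mean plus 3 SD in both duplicate wells; inconclusive = duplicate wells that disagreed; inactive = the rest.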
# Experiment: native HEK Tl+ uptake effects, second counter-screen – HEK cells, counterscreen 2, counter-screen for KCC2 modulator project, confirmation (AID 1718);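 also: run without ouabain in cells lacking the KCC2 cotransporter; slope of fluorescence scaled to its starting value between 10 and 20 s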
# Conditions: HEK293 parental, thallium flux FluoZin-2 fluorescence slope; at 10 µM
# Method in brief: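 System: untransfected HEK cells, thallium influx assay; Schedule: 37 °C overnight growth, 48 min FluoZin2-AM loading; Medium: HBSS with 20 mM HEPES for dye loading; Measured by: FluoZin2-AM fluorescence (0.5 µM), ex 480 nm, em 540 nm, kinetic 1 Hz; Read-out: thallium influx rate; Compound: single 10 µM final compound dose, 0.1% DMSO.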
row,Structure (SMILES),thallium flux slope
1,CCCCC(CCC(=O)O)(C(=O)OCC)c1csc(Nc2ccc(C)cc2)n1 (centres undefined),inconclusive: 0.00883
2,CCn1c(SCC(N)=O)nnc1-c1ccc(S(=O)(=O)N2CCN(C)CC2)cc1,inconclusive: 0.0115
3,COc1ccc(C/C(C)=N/NC(=S)Nc2ccccc2F)cc1,inconclusive: 0.0178
4,S=c1nc(C2CC2)n(-c2ccccc2)[nH]1,inconclusive: 0.0106
5,Cc1ccc(NC(=S)NNc2ccc([N+](=O)[O-])cc2S(=O)(=O)Nc2ccccc2C(=O)O)cc1C,inconclusive: 0.00979
6,O=C(CNS(=O)(=O)c1c(Cl)cccc1Cl)OCc1csc(-c2ccccc2)n1,inactive: 0.00934
7,CCOc1ccccc1NC(=S)N(CCCN1CCOCC1)Cc1cn(C)c2ccccc12,inactive: 0.0107
8,CCOc1cc(/C=N/NC(=O)CN(CCc2ccccc2)S(=O)(=O)c2ccc(NC(C)=O)cc2)ccc1O,inactive: 0.01
9,O=C(c1cc(COc2ccc(F)cc2Cl)on1)N1CCCC(OCc2cccnc2)C1 (centres undefined),inconclusive: 0.00991
10,O=C(N/N=C\c1cn(-c2ccccc2)nc1-c1ccccc1)c1ccc(Br)o1,inconclusive: 0.0111
11,CC(=O)SCC(=O)N=c1sc2cc(F)ccc2n1C,inactive: 0.0115
12,COc1cc(-c2nc(CN3CCN(c4ncccn4)CC3)c(C)o2)ccc1F,inconclusive: 0.00927
13,COc1cc(C(=O)NC(=S)NNC(=O)c2ccc3c(c2)OCO3)cc(OC)c1OC,inactive: 0.0107
14,CCn1c(SCC(=O)N(Cc2ccccc2)C2CCS(=O)(=O)C2)nc2ccccc2c1=O (centres undefined),active: 0.0126
